The campaign covered roughly 44,000 compounds. About 340 (0.77%) were called active. Not shown: some 5% with an inconclusive outcome. The call rests on the fitted dose curve; in most records, active means well fitted inhibition curve with a large enough effect; inconclusive means small, poorly fitted or top-dose-only effect; inactive means flat fitted curve, though single readings scatter. This is one part of the list.
Assay: Acumen qHTS Assay for Inhibitors of the mTORC1 Signaling Pathway in MEF (Tsc2-/-, p53-/-) Cells: Sytravon;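 further: plate controls were DMSO for no effect and rapamycin for full effect; nearly all actives have a fitted effect of over 50% in size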
Conditions: phospho-rpS6 immunofluorescence/PI, 24 h; series mostly up to 38.3 µM; activity change, negative = inhibition: at the top concentration
In short: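 Plate MEFs (Tsc2-/-, p53-/-, empty vector) in DMEM/10% FBS; after 24 h add compound, incubate 24 h at 37 degree Celsius; fix in PFA/TX-100, block, stain phospho-rpS6 and 10 uM PI; scan at 488 nm; report % positive cells.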

Activity change, negative = inhibition, inactive:
O=C(c1ccc(Br)cc1)N1CCC(c2nc3ccccc3s2)CC1 -2.35%, CCOc1ccc(CNC(=O)C(C)n2ncn3cccc3c2=O)cc1 (configuration not stated) 0%, CCOC(=O)c1[nH]c(C)c(CCC(=O)Nc2ccc(C)cc2Cl)c1C 0.735%, CCOc1ccccc1CNC(=O)C1=C(C)C(=O)OC12CCN(C(C)=O)CC2 -7.98%, Cc1ccc2c(c1)c1c(c(=O)n(-c3ccccc3C)c(=O)n1Cc1cccc(F)c1)n2C 0.767%, Cc1ccc(Cl)cc1NC(=O)C(NS(=O)(=O)c1ccc2c(c1)CCC(=O)N2)c1ccccc1 (configuration not stated) 1.1%, Cc1cccc(NC(=O)CC2C(=O)OCCN2Cc2ccccc2)c1 (configuration not stated) -0.521%, CCc1ccc(NCc2cc3cc(OC)c(OC)cc3n(CC(=O)Nc3ccc(F)cc3)c2=O)cc1 1.59%, CC(C)(C)C(=O)Nc1ccc2nc(SCc3ccccc3)sc2c1 -20.7%, CC1=C(c2ccc(F)cc2)S(=O)(=O)NC1=NCc1ccccc1Cl -10.8%, COc1cccc(CNC(=O)CCn2c(=O)c3cccn3c3cccnc32)c1 5.51%, Cc1ccccc1C(=O)NC(=O)Nc1ccc(-n2nc(C(F)(F)F)cc2C(F)(F)F)cc1 7.32%, COc1ccc2cc(CNc3ccccc3)c(=O)n(CC(=O)Nc3ccc(C(C)=O)cc3)c2c1 -1.38%, CCC(=O)N1CCc2cc(S(=O)(=O)NC(Cc3ccccc3)C(=O)NCc3cccc(OC)c3)ccc21 (configuration not stated) -12.3%, COc1ccc(-c2cn3nc(N4CCCC(C(=O)NCCCOC(C)C)C4)sc3n2)cc1 (configuration not stated) 2.79%, CCCN(CCC)c1cc(C)nc2nc(-c3ccc(Cl)cc3)nn12 4.31%, Cc1ccc(C(=O)CSc2nc(-c3ccccc3)nc3c2CCCC3)cc1C 7.61%, CC1=C(C(=O)Nc2ccc(C)cc2C)C(c2cccs2)n2nc(SCc3ccc(Cl)cc3)nc2N1 (configuration not stated) 0.474%, Cc1cc(Oc2nc3ccccn3c(=O)c2/C=C(\C#N)c2nc3ccccc3s2)ccc1Cl 4.43%, COc1ccc(-c2csc3ncnc(Nc4cccc(F)c4)c23)cc1 0%, CC(=O)c1ccc(NC(=O)CC2Sc3ccccc3NC2=O)cc1 (configuration not stated) -7.32%, Cc1nc2nc(NC(=O)C(C)C)[nH]n2c(=O)c1Cc1ccccc1 -1.14%, Cc1ccc(NC(=O)C2CCN(C(=O)c3cnn(-c4ccccc4)c3-n3cccc3)CC2)cc1Cl 6.05%, COc1cc(Cl)c(C)cc1NC(=O)CCn1cnc2onc(-c3ccc(F)cc3)c2c1=O -2.83%, CC(CNC(=O)Cn1c(-c2cccs2)cc2cc(Cl)ccc21)c1ccccc1 (configuration not stated) 0.789%, COCC(C)NS(=O)(=O)c1ccc(N2CCCCS2(=O)=O)cc1 (configuration not stated) 0%, CCOC(=O)c1ccc(NC(=O)c2sc3nc4n(c(=O)c3c2C)CCC4)cc1 6.34%, CCN1C(C(=O)c2ccccc2)=C(NC(=O)c2ccc(Cl)cc2)c2ccccc2S1(=O)=O -9.44%, Cc1ccc2c(CC(=O)Nc3c(C(=O)c4ccc(F)cc4)oc4ccccc34)coc2c1C 3.11%, CC(C)c1ccc(NC(=O)C(Cc2ccccc2)n2cccc2)cc1 (configuration not stated) -7.36%, CCOc1ccc(NC(=O)Cn2c(=O)n(CC(=O)NCCc3ccccc3)c(=O)c3sccc32)cc1 -24%, Cc1ccc(C)c(S(=O)(=O)c2cn(Cc3ccccc3)c3cc(N4CCCC4)c(F)cc3c2=O)c1 0.0724%, CC(=O)N1CCCc2cc(S(=O)(=O)Nc3ccc(OC(F)(F)F)cc3)ccc21 -24.8%, Cc1ccc(-n2ccn(CC(=O)c3ccc(F)cc3)c(=O)c2=O)cc1C 8.94%, COc1cccc(C(=O)NCCc2sc(-c3cccc(C)c3)nc2C)c1 -1.54%, COc1cccc(NC(=O)c2oc3ccccc3c2NC(=O)c2ccc(OC(C)C)cc2)c1 -5.08%, CCOC(=O)c1ccc(N2C(=O)c3[nH]nc(-c4ccccc4)c3C2c2ccc(C(C)C)cc2)cc1 (configuration not stated) -1.24%, COc1ccc2c(CNCCc3ccco3)c(C(=O)O)n(Cc3ccc(F)cc3)c2c1 -6.98%, CCn1cc(C(=O)NCc2ccc(Cl)cc2)c(=O)c2cc(S(=O)(=O)N3CCc4ccccc4C3)ccc21 -1.3%, CC(=O)Nc1nonc1-c1nnc(SCC(=O)Nc2c(C)cccc2C)n1-c1ccccc1 1.54%, COc1ccc(OC)c(N(C)S(=O)(=O)c2ccc3c(c2)NC(=O)CC(=O)N3)c1 -1.25%, COc1ccc(C)cc1NC1(c2ccccc2)C(=O)c2ccccc2C1=O 5.01%, COc1ccc2nc(N3CCN(C(=O)CS(=O)(=O)c4ccc(C)cc4)CC3)sc2c1 -6.57%, Cc1ccccc1NC(=O)c1sc2nc3n(c(=O)c2c1C)N=C(c1ccccc1)CS3 -12.2%, CN(C)c1ccc(NC(=O)CC(NCc2cccnc2)C(=O)O)cc1 (configuration not stated) -5.27%, COc1ccc(-n2ccn3c(CC(C)(C)CC(=O)O)nnc3c2=O)cc1 3.81%, COc1cccc(CNc2sc3c(c2C(=O)Nc2ccc(OC)cc2OC)CCC3)c1 -4.27%, Cc1ccc(NC(=O)CCCn2c(=O)c3cccn3c3cccnc32)c(C)c1 -2.55%, CCC(Sc1nc2nccnc2c(=O)n1Cc1ccc(Cl)cc1)C(=O)NC1CCCCC1 (configuration not stated) 10.2%, O=c1c(-c2cc(-c3ccccc3)nc3c2COc2ccc(Cl)cc2-3)coc2ccccc12 -16.8%, Cc1ccc(-c2cnc(C3CC3)o2)cc1S(=O)(=O)Nc1ccc(F)cc1Cl -0.627%, CC(C)CNC(=O)C(=O)Nc1c2c(nn1-c1ccc(Cl)cc1)CSC2 -12.7%, CC(=O)c1ccc(NC(=O)CSc2nccn2C2CCCC2)cc1 -3.91%, Cc1cccc(N2CCN(c3ccc4cc(S(=O)(=O)N5CCC(C)CC5)ccc4n3)CC2C)c1 (configuration not stated) 3.17%, COc1ccc(S(=O)(=O)NC(C)(C)CO)cc1-c1nnc2c3ccccc3c(C)nn12 4.1%, O=c1c(N2CCN(c3ccc(F)cc3)CC2)csc2ccc(F)cc12 2.78%, CCOc1ccc(NC(=O)CSc2nc3ccccc3nc2N2CCOCC2)cc1 0.127%, COc1ccc(CNC(=O)c2cc3cccc4c3n2CC(C)S4)cc1 (configuration not stated) 1.57%, CCCn1c(=O)c2sccc2n2c(CCCC(=O)N3CCN(c4ccc(OC)cc4)CC3)nnc12 -2.28%, CC(C)CC(=O)Nc1cccc(-c2cn3cccnc3n2)c1 0.107%, Cc1nn(-c2cccc(Cl)c2)c2nc(-c3cccnc3)cc(C(F)(F)F)c12 1.8%, CCOCCCNC(=O)CN1C(=O)COc2ccc(S(=O)(=O)N3CCOCC3)cc21 -15%, COc1ccc(-c2cc(C(F)(F)F)nc(SCCC(=O)Nc3ccc(F)cc3F)n2)cc1 -2.75%, O=C(CSc1ccc2nc(-c3ccccc3)cn2n1)Nc1ccccc1 -1.76%, O=C(Nc1ccc(F)cc1F)c1ccc(-n2cnc3cccnc32)cc1 -5.56%, COc1ccc(N(C)C(=O)c2oc(=O)c3ccccc3c2-c2ccc(C)cc2)c(OC)c1 -5.19%, N#Cc1c(-n2ncnc2-c2ccccc2Cl)sc2c1CCCCC2 -3.98%, COc1ccc(N2CCN(C(=O)CCCCn3c(=O)[nH]c4ccsc4c3=O)CC2)cc1 6.63%, Cc1ccc(CNC(=O)CCc2c(C)c3cc4c(C)coc4cc3oc2=O)cc1 -11.9%, COC(=O)c1c(SCC(=O)Nc2ccccc2C(F)(F)F)[nH]c2ccc(Cl)cc2c1=O -3.39%, CC(C)c1ccc(CNC(=O)c2ccc(N3CCCC3)c(NC(=O)NCc3ccc(F)cc3)c2)cc1 0%, CCOC(=O)C1CCN(C(c2ccc(C)cc2)c2sc3nc(-c4ccco4)nn3c2O)CC1 (configuration not stated) 0.881%, CCOc1ccc(/C=C(\C#N)C(=O)Nc2sc3c(c2C(=O)OC)CCC3)cc1OC -2.16%, Cc1cccc(Nc2cc(C)nc3nc(-c4ccccc4)nn23)c1 -4.44%, CC1=C(C(=O)Nc2cccc(F)c2)C2(CCCCC2)OC1=O -0.0305%, COc1ccc(OC)c(NC(=O)c2cc3cccc(OC)c3oc2=O)c1 1.05%, CCCNC(=O)c1ccc(Cn2c(SCC(N)=O)nc3ccccc3c2=O)cc1 -0.451%, CCOc1ccccc1C(=O)N1CCc2cc(OC)c(OC)cc2C1COc1ccc(OC)cc1 (configuration not stated) 3.55%, Cc1ccc(-c2nc3cccc(C)n3c2Nc2ccc3c(c2)OCO3)o1 1.1%, COc1cccc(CNC(=O)Cn2ncn3c(cc4ccccc43)c2=O)c1 -1.99%, Cc1nn(-c2ccccc2)c(OC(=O)c2ccc(Cl)cc2)c1S(=O)(=O)c1ccccc1 1.49%, CCC(=O)Oc1c(Sc2ccc(C)cc2)c(C)nn1-c1ccccc1 -0.427%, COc1ccc(CNS(=O)(=O)c2cc3c(cc2Cl)NC(=O)CO3)cc1 -2.95%, O=C(c1cc(-c2ccc(Br)cc2)n[nH]1)N1CCN(S(=O)(=O)c2ccc(Cl)s2)CC1 -3.75%, CC(C)CC(=O)Nc1ccc2nc(SCC(=O)N3CCOCC3)sc2c1 -6.79%, COCCCn1c(SCC(=O)Nc2ccc(OC)cc2)nc2c(sc3ccccc32)c1=O -5.03%, O=C(CSc1nc(=O)n(CCN2CCOCC2)c2c1CCC2)Nc1ccc(F)cc1F -1.11%, CCOC(=O)c1cc(-c2ccc(F)cc2)n(CCC(=O)Nc2cc(OC)cc(OC)c2)c1C -6.09%, Cn1c(=O)c2c(nc(N3CCOCC3)n2Cc2ccccc2F)n(C)c1=O -2.26%, O=C(CSc1nc2ncccc2o1)Nc1ccc(Cl)cc1F -4.66%, O=C(Nc1ccccc1C(F)(F)F)C1CCN(S(=O)(=O)c2ccccc2)CC1 -0.986%, COc1cc(C2c3c(-c4cc(C)ccc4O)n[nH]c3C(=O)N2Cc2ccco2)cc(OC)c1OC (configuration not stated) 8.22%, COC(=O)CSc1nc2sc3c(c2c(=O)n1-c1ccccc1)C(C)CCC3 (configuration not stated) 0.881%, CC(C)Oc1ccc(C(=O)Nc2nnc3n2CCS3)cc1 -3.56%, O=C(Cn1cc(SCc2ccc(Cl)cc2)c2ccccc21)N1CCOCC1 -4.48%, COc1ccc(NC(=O)CSc2nc3ccccc3n2CC(=O)N(C)C2CCCCC2)cc1 5.15%, COc1ccc(NC(=O)c2cc(S(=O)(=O)N3CCCC(C)C3)cn2C)c(OC)c1 (configuration not stated) 1.42%

Source: PubChem BioAssay AID493208 (National Center for Advancing Translational Sciences (NCATS), 2011)
